# Measurements taken from the supplement of paper PMC10037445.
# Whole data set: some 2,900 compounds, median “NF-kB SEAP reporter activity, fold change vs agonist alone” near 0.99, cut for the highest 2% near 2.6. Some of the results follow.
# Key:
# RAW-Dual [1] = assay: NF-kB SEAP reporter activity, fold change vs agonist alone; higher = enhanced NF-kB activity
# Outline: (§1)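 Supernatant from RAW-Dual macrophages was read after 20 hours for IRF by QuantiLuc luminescence and for NF-κB by QuantiBlue absorbance at 620 nm. The cells (50,000 cells/well in DMEM, 384-well plates, 37 °C, 5% CO2) had received 50 nL of library stock by pin tool and, 1 h later, a PRR agonist. Reporter activity is expressed relative to agonist-alone wells as fold change, and wells were flagged cytotoxic if IncuCyte confluency was under 70% of agonist controls in both mask sets.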
# RAW-Dual [2] = assay: NF-kB SEAP reporter activity, fold change vs agonist alone; cytotoxicity flag (confluency mask): not cytotoxic; higher = enhanced NF-kB activity
# Outline: as §1
# RAW-Dual [3] = assay: NF-kB SEAP reporter activity, fold change vs agonist alone; cytotoxicity flag (confluency mask): cytotoxic (confluency <70% of control); higher = enhanced NF-kB activity
# Outline: as §1
# [4] = library stock concentration (final ~1000-fold dilution): 10 mM, cytotoxicity flag (confluency mask): not cytotoxic, agonist: Imiquimod (TLR7) […]
# [5] = library stock concentration (final ~1000-fold dilution): 10 mM, cytotoxicity flag (confluency mask): not cytotoxic, agonist: MPLA (TLR4) […]
# [6] = agonist: ODN 1826 (TLR9) 0.5 ug/mL
# [7] = agonist: Pam2CSK4 (TLR2/6) 0.1 ug/mL
# [8] = agonist: Pam3CSK4 (TLR2/1) 0.1 ug/mL
structure (smiles),measurement,setting,value
CC1Oc2cc(cnc2N)-c2c(nn(C)c2C#N)CN(C)C(=O)c2ccc(F)cc21 (stereo not drawn),NF-kB SEAP reporter activity,RAW-Dual [1]; [4],0.784
same,NF-kB SEAP reporter activity,RAW-Dual [1]; [5],0.872
CC1Oc2cc(cnc2N)-c2c(nn(C)c2C#N)CN(C)C(=O)c2ccc(F)cc21 (stereo not drawn) (library stock concentration (final ~1000-fold dilution): 10 mM),NF-kB SEAP reporter activity,RAW-Dual [2]; agonist: LPS (TLR4) 0.1 ug/mL,1.08
same,NF-kB SEAP reporter activity,RAW-Dual [2]; [6],0.894
same,NF-kB SEAP reporter activity,RAW-Dual [2]; [7],0.83
same,NF-kB SEAP reporter activity,RAW-Dual [2]; [8],0.793
Cn1nc(-c2cnc(N)c(-c3ccc(C(N)=O)c(F)c3)n2)nc1C1(c2ccccc2)CC1 (library stock concentration (final ~1000-fold dilution): 10 mM),NF-kB SEAP reporter activity,RAW-Dual [2]; agonist: LPS (TLR4) 0.1 ug/mL,1.2
same,NF-kB SEAP reporter activity,RAW-Dual [2]; [6],0.819
same,NF-kB SEAP reporter activity,RAW-Dual [2]; [7],0.852
same,NF-kB SEAP reporter activity,RAW-Dual [2]; [8],0.889
Cn1nc(-c2cnc(N)c(-c3ccc(C(N)=O)c(F)c3)n2)nc1C1(c2ccccc2)CC1,NF-kB SEAP reporter activity,RAW-Dual [1]; [4],1.01
same,NF-kB SEAP reporter activity,RAW-Dual [1]; [5],1.03
CCOC(=O)C1=C[C@]2(CC)CCCN3CCc4c(n1c1ccccc41)[C@@H]32 (library stock concentration (final ~1000-fold dilution): 10 mM),NF-kB SEAP reporter activity,RAW-Dual [2]; agonist: LPS (TLR4) 0.1 ug/mL,1.12
same,NF-kB SEAP reporter activity,RAW-Dual [2]; [6],1.02
same,NF-kB SEAP reporter activity,RAW-Dual [2]; [7],1.01
same,NF-kB SEAP reporter activity,RAW-Dual [2]; [8],1.06
CCOC(=O)C1=C[C@]2(CC)CCCN3CCc4c(n1c1ccccc41)[C@@H]32,NF-kB SEAP reporter activity,RAW-Dual [1]; [4],0.79
same,NF-kB SEAP reporter activity,RAW-Dual [1]; [5],1.18
COc1ccccc1O,NF-kB SEAP reporter activity,RAW-Dual [1]; [4],0.812
same,NF-kB SEAP reporter activity,RAW-Dual [1]; [5],0.931
COc1ccccc1O (library stock concentration (final ~1000-fold dilution): 10 mM),NF-kB SEAP reporter activity,RAW-Dual [2]; agonist: LPS (TLR4) 0.1 ug/mL,1.13
same,NF-kB SEAP reporter activity,RAW-Dual [2]; [6],0.994
same,NF-kB SEAP reporter activity,RAW-Dual [2]; [7],1.1
same,NF-kB SEAP reporter activity,RAW-Dual [2]; [8],1.15
CNC1C(O)C(OC2C(NC(=O)C(O)CN)CC(N)C(OC3OC(CN)C(O)C(O)C3O)C2O)OCC1(C)O.O=S(=O)(O)O (stereo not drawn) (library stock concentration (final ~1000-fold dilution): 10 mM water),NF-kB SEAP reporter activity,RAW-Dual [2]; agonist: LPS (TLR4) 0.1 ug/mL,1.03
same,NF-kB SEAP reporter activity,RAW-Dual [2]; [6],1.09
same,NF-kB SEAP reporter activity,RAW-Dual [2]; [7],1.3
same,NF-kB SEAP reporter activity,RAW-Dual [2]; [8],1.14
CNC1C(O)C(OC2C(NC(=O)C(O)CN)CC(N)C(OC3OC(CN)C(O)C(O)C3O)C2O)OCC1(C)O.O=S(=O)(O)O (stereo not drawn),NF-kB SEAP reporter activity,"RAW-Dual [1]; library stock concentration (final ~1000-fold dilution): 10 mM water, cytotoxicity flag (confluency mask): not cytotoxic, agonist: Imiquimod (TLR7) […]",0.944
same,NF-kB SEAP reporter activity,"RAW-Dual [1]; library stock concentration (final ~1000-fold dilution): 10 mM water, cytotoxicity flag (confluency mask): not cytotoxic, agonist: MPLA (TLR4) […]",1.01
COc1cc(CCC(C)=O)ccc1O,NF-kB SEAP reporter activity,RAW-Dual [1]; [4],0.986
same,NF-kB SEAP reporter activity,RAW-Dual [1]; [5],1.03
COc1cc(CCC(C)=O)ccc1O (library stock concentration (final ~1000-fold dilution): 10 mM),NF-kB SEAP reporter activity,RAW-Dual [2]; agonist: LPS (TLR4) 0.1 ug/mL,1.17
same,NF-kB SEAP reporter activity,RAW-Dual [2]; [6],1.03
same,NF-kB SEAP reporter activity,RAW-Dual [2]; [7],1.14
same,NF-kB SEAP reporter activity,RAW-Dual [2]; [8],0.982
O=C1N=C(NCc2cccs2)S/C1=C\c1ccc2ncccc2c1,NF-kB SEAP reporter activity,RAW-Dual [1]; [4],0.94
same,NF-kB SEAP reporter activity,RAW-Dual [1]; [5],1.14
O=C1N=C(NCc2cccs2)S/C1=C\c1ccc2ncccc2c1 (library stock concentration (final ~1000-fold dilution): 10 mM),NF-kB SEAP reporter activity,RAW-Dual [2]; agonist: LPS (TLR4) 0.1 ug/mL,0.926
same,NF-kB SEAP reporter activity,RAW-Dual [2]; [6],0.846
same,NF-kB SEAP reporter activity,RAW-Dual [2]; [7],1.24
same,NF-kB SEAP reporter activity,RAW-Dual [2]; [8],1.15
Cc1c[nH]c2nc(Nc3ccc(N4CCN(C)CC4)c(F)c3)nc(-c3cccc(CC#N)c3)c12 (library stock concentration (final ~1000-fold dilution): 10 mM),NF-kB SEAP reporter activity,RAW-Dual [3]; agonist: LPS (TLR4) 0.1 ug/mL,0.261
same,NF-kB SEAP reporter activity,RAW-Dual [3]; [6],0.179
same,NF-kB SEAP reporter activity,RAW-Dual [3]; [7],0.0754
same,NF-kB SEAP reporter activity,RAW-Dual [3]; [8],0.204
Cc1c[nH]c2nc(Nc3ccc(N4CCN(C)CC4)c(F)c3)nc(-c3cccc(CC#N)c3)c12,NF-kB SEAP reporter activity,"RAW-Dual [1]; library stock concentration (final ~1000-fold dilution): 10 mM, cytotoxicity flag (confluency mask): cytotoxic (confluency <70% of control), agonist: Imiquimod (TLR7) […]",0.131
same,NF-kB SEAP reporter activity,"RAW-Dual [1]; library stock concentration (final ~1000-fold dilution): 10 mM, cytotoxicity flag (confluency mask): cytotoxic (confluency <70% of control), agonist: MPLA (TLR4) […]",0.265
